The source of these data is patent US20150183864A1 (KOREA ADVANCED INSTITUTE OF SCIENCE AND TECHNOLOGY KAIST, published 2015).

A word on the Kd: it is the equilibrium constant for the complex coming apart. Lower therefore signals tighter binding.

For assay [1], the target named is T1, TNF-α (R&D Cat#210-TA/CF) (UniProt P01375 fragment).
T1 construct: Bought recombinant protein; also called TNF-alpha; tumor necrosis factor alpha
Nature of the assay: SPR, BIAcore 3000, TNF-α immobilized on CM5 chip.

Assay [2] deals with T2, VEGF-A165 (produced from CHO cell) (UniProt P15692-4 27-191).
T2 sequence (looked up): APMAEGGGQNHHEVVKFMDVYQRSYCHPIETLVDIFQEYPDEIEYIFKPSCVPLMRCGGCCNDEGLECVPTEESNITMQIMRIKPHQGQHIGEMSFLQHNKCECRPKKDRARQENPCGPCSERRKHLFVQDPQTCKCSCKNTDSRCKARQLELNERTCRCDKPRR
Nature of the assay: SPR, BIAcore 3000, VEGF-A immobilized on CM5 chip. Background: SPR reads the build-up and loss of mass on a sensor chip optically.

T1 sequence (P01375 77-233 limits assumed): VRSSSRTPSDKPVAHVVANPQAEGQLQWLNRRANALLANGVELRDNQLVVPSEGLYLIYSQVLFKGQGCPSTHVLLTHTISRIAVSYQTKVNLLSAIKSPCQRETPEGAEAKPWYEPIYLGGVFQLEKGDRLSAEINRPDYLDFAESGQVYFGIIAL

B1: Valpha recombinant protein (Valpha FV#1: Mbd-TNFR2, Ig2 of VEGFR1 and human IgG Fc portion in order) (Fc fusion)
chain: LPAQVAFTPYAPEPGSTCRLREYYDQTAQMCCSKCSPGQHAKVFCTKTSDTVCDSCEDSTYTQLWNWVPECLSCGSRCSSDQVETQACTREQNRICTCRPGWYCALSKQEGCRLCAPLRKCRPGFGVARPGTETSDVVCKPCAPGTFSNTTSSTDICRPHQICNVVAIPGNASMDAVCTSTSPTRSMAPGAVHLPQPVSTRSQHTQPTPEPSTAPSTSFLLPMGPSPPAEGSTGDGRPFVEMYSEIPEIIHMTEGRELVIPCRVTSPNITVTLKKFPLDTLIPDGKRIIWDSRKGFIISNATYKEIGLLTCEATVNGHLYKTNYLTHRQLE[human IgG1 Fc not shown]
notes: Produced in CHO cells; also called double anti-inflammation-angiogenesis protein targeting both VEGF-A and TNF-alpha
In the case of B1, the Kd in assay [1] was determined as 0.641 nM; in assay [2] it was 0.00654 nM.
